Laboratory results from the supplement of paper PMC7125110.
± gives the standard error. Variants at the background level are over-represented here.

B1: glmS ribozyme (parent)
chain: AUAAAAGCGCCAGAACUACAGAAAUGUAGUUGACGAGGAGGAGGUUUAUCGAAUUUUCGGCGGAUGCCUCCAAA

How the values were obtained:
Settings in all cases: with glucosamine-6-phosphate
[1] = variants of: B1; assay: self-cleavage kobs at 40 uM GlcN6P; higher = faster cleavage; RNA array
Summary of the method: (§1)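 kobs was derived by fitting per-tile medians to one- or two-exponential decays after normalising signals to baseline and to non-cleaving reference variants. Those signals came from barcoded ribozyme variants transcribed in situ by E. coli RNA polymerase on sequenced MiSeq chips, followed through a hybridised Cy3 probe at 37 °C and imaged over ~14 h. Glucosamine-6-phosphate (40 μM to 10 mM) in HEPES/KCl/Mg(OAc)2 buffer was flowed in. Weighted Michaelis–Menten fits across concentrations then gave kcat and KM.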

[2] = variants of: B1; assay: self-cleavage kobs at 640 uM GlcN6P; higher = faster cleavage; RNA array
Summary of the method: as §1

[3] = variants of: B1; assay: self-cleavage kobs at 160 uM GlcN6P; higher = faster cleavage; RNA array
Summary of the method: as §1

[4] = variants of: B1; assay: self-cleavage kobs at 2500 uM GlcN6P; higher = faster cleavage; RNA array
Summary of the method: as §1

[5] = variants of: B1; assay: self-cleavage kobs at 10000 uM GlcN6P; higher = faster cleavage; RNA array
Summary of the method: as §1

Variant | self-cleavage kobs at 40 uM GlcN6P [1] | self-cleavage kobs at 640 uM GlcN6P [2] | self-cleavage kobs at 160 uM GlcN6P [3] | self-cleavage kobs at 2500 uM GlcN6P [4] | self-cleavage kobs at 10000 uM GlcN6P [5]
U56A C70A | 3.68e-05 ± 1.1e-05 s⁻¹ | 7.05e-05 ± 1.1e-05 s⁻¹ | 5.73e-05 ± 1.1e-05 s⁻¹ | 0.000153 ± 2.3e-05 s⁻¹ | 8.51e-05 ± 9.4e-06 s⁻¹
U56A C70U | 0.000377 ± 3.2e-05 s⁻¹ | 0.002 ± 0.00026 s⁻¹ | 0.000852 ± 0.00013 s⁻¹ | 0.0104 ± 0.0022 s⁻¹ | 0.0156 ± 0.0024 s⁻¹
U56A G59C | < 1e-05 s⁻¹ |  |  |  | 
U56C C58U | < 1e-05 s⁻¹ |  |  |  | 
U56C C61G | < 1e-05 s⁻¹ |  |  | < 1e-05 s⁻¹ | < 1e-05 s⁻¹
U56C C61G C67G | < 1e-05 s⁻¹ |  |  |  | < 1e-05 s⁻¹
U56C C67U | < 1e-05 s⁻¹ |  | < 1e-05 s⁻¹ |  | 
U56C C68A | < 1e-05 s⁻¹ | < 1e-05 s⁻¹ | < 1e-05 s⁻¹ |  | < 1e-05 s⁻¹
U56C C70A | < 1e-05 s⁻¹ |  |  |  | < 1e-05 s⁻¹
U56C C71A | < 1e-05 s⁻¹ |  |  |  | 
U56G A64U C67U | < 1e-05 s⁻¹ |  |  |  | 
U56G C61G | < 1e-05 s⁻¹ |  |  |  | < 1e-05 s⁻¹
U56G G60U | < 1e-05 s⁻¹ | < 1e-05 s⁻¹ | < 1e-05 s⁻¹ |  | 
U56G G60U A64U | < 1e-05 s⁻¹ | < 1e-05 s⁻¹ | < 1e-05 s⁻¹ |  | < 1e-05 s⁻¹
U56G U57A G59U G60A | < 1e-05 s⁻¹ |  |  |  | < 1e-05 s⁻¹
U57A C61U C70G | < 1e-05 s⁻¹ | < 1e-05 s⁻¹ |  |  | 
U57A G59C | < 1e-05 s⁻¹ |  | < 1e-05 s⁻¹ |  | 
U57A U65A | < 1e-05 s⁻¹ |  | < 1e-05 s⁻¹ |  | 
U57C C61A | < 1e-05 s⁻¹ | < 1e-05 s⁻¹ | < 1e-05 s⁻¹ |  | 
U57C G60C | < 1e-05 s⁻¹ | < 1e-05 s⁻¹ | < 1e-05 s⁻¹ | < 1e-05 s⁻¹ | < 1e-05 s⁻¹
U57C G62U U65C | < 1e-05 s⁻¹ |  |  |  | < 1e-05 s⁻¹
U57G A64C | < 1e-05 s⁻¹ | < 1e-05 s⁻¹ | < 1e-05 s⁻¹ |  | < 1e-05 s⁻¹
U57G G59A | < 1e-05 s⁻¹ | < 1e-05 s⁻¹ |  |  | 
U57G U65A | < 1e-05 s⁻¹ |  |  |  | 

Variant | self-cleavage kobs at 40 uM GlcN6P [1] | self-cleavage kobs at 640 uM GlcN6P [2] | self-cleavage kobs at 160 uM GlcN6P [3] | self-cleavage kobs at 2500 uM GlcN6P [4] | self-cleavage kobs at 10000 uM GlcN6P [5]
C58A G60A | < 1e-05 s⁻¹ |  | < 1e-05 s⁻¹ |  | < 1e-05 s⁻¹
C58A G62A | < 1e-05 s⁻¹ | < 1e-05 s⁻¹ |  |  | 
C58U | < 1e-05 s⁻¹ |  |  |  | 
C58U A64G | < 1e-05 s⁻¹ |  | < 1e-05 s⁻¹ |  | 
C58U C71U | < 1e-05 s⁻¹ |  |  |  | 
G59A C68U U69G | < 1e-05 s⁻¹ |  |  |  | 
G59A C71U | < 1e-05 s⁻¹ |  |  |  | 
G59C A64G | < 1e-05 s⁻¹ | < 1e-05 s⁻¹ |  |  | < 1e-05 s⁻¹
G59C C67U | < 1e-05 s⁻¹ |  |  |  | 
G59C C68A | < 1e-05 s⁻¹ |  |  |  | < 1e-05 s⁻¹
G59C G62U U69A | < 1e-05 s⁻¹ | < 1e-05 s⁻¹ |  |  | 
G59C U65C C68G | < 1e-05 s⁻¹ |  |  |  | < 1e-05 s⁻¹
G59U C71G | < 1e-05 s⁻¹ |  | < 1e-05 s⁻¹ |  | 
G59U G60C C67A C70G | < 1e-05 s⁻¹ |  |  |  | 
G59U G63C | < 1e-05 s⁻¹ |  |  |  | < 1e-05 s⁻¹
G60A A64G | < 1e-05 s⁻¹ |  | < 1e-05 s⁻¹ |  | 
G60A A64U | < 1e-05 s⁻¹ | < 1e-05 s⁻¹ |  | < 1e-05 s⁻¹ | 
G60A C70U | < 1e-05 s⁻¹ |  |  | 1.93e-05 ± 9.2e-06 s⁻¹ | 3.02e-05 ± 6.5e-06 s⁻¹
G60A G62U | < 1e-05 s⁻¹ | < 1e-05 s⁻¹ | < 1e-05 s⁻¹ |  | 
G60A G63U | < 1e-05 s⁻¹ | < 1e-05 s⁻¹ | < 1e-05 s⁻¹ |  | < 1e-05 s⁻¹
G60A G66A | < 1e-05 s⁻¹ |  | < 1e-05 s⁻¹ |  | 
G60C C71G | < 1e-05 s⁻¹ |  | < 1e-05 s⁻¹ |  | < 1e-05 s⁻¹
G60C G62A | < 1e-05 s⁻¹ |  | < 1e-05 s⁻¹ |  | < 1e-05 s⁻¹
G60C G62C | < 1e-05 s⁻¹ |  | < 1e-05 s⁻¹ |  | 

Variant | self-cleavage kobs at 40 uM GlcN6P [1] | self-cleavage kobs at 640 uM GlcN6P [2] | self-cleavage kobs at 160 uM GlcN6P [3] | self-cleavage kobs at 2500 uM GlcN6P [4] | self-cleavage kobs at 10000 uM GlcN6P [5]
G60C G63C | < 1e-05 s⁻¹ | < 1e-05 s⁻¹ | < 1e-05 s⁻¹ | < 1e-05 s⁻¹ | < 1e-05 s⁻¹
G60C G66U | < 1e-05 s⁻¹ | < 1e-05 s⁻¹ |  | < 1e-05 s⁻¹ | 
G60U C61G | < 1e-05 s⁻¹ |  |  | < 1e-05 s⁻¹ | < 1e-05 s⁻¹
G60U C67A C68G | < 1e-05 s⁻¹ |  |  |  | 
G60U C67U C70G | < 1e-05 s⁻¹ |  |  | < 1e-05 s⁻¹ | 
G60U C71G | < 1e-05 s⁻¹ | < 1e-05 s⁻¹ | < 1e-05 s⁻¹ | < 1e-05 s⁻¹ | < 1e-05 s⁻¹
G60U G63C | < 1e-05 s⁻¹ | < 1e-05 s⁻¹ |  | < 1e-05 s⁻¹ | < 1e-05 s⁻¹
G60U G66A C68G C70G | < 1e-05 s⁻¹ |  |  |  | < 1e-05 s⁻¹
G60U U65C | < 1e-05 s⁻¹ | < 1e-05 s⁻¹ | < 1e-05 s⁻¹ | < 1e-05 s⁻¹ | < 1e-05 s⁻¹
C61A C68U | < 1e-05 s⁻¹ |  |  |  | < 1e-05 s⁻¹
C61A G63A | < 1e-05 s⁻¹ | < 1e-05 s⁻¹ | < 1e-05 s⁻¹ | < 1e-05 s⁻¹ | 
C61A U65G | < 1e-05 s⁻¹ | < 1e-05 s⁻¹ | < 1e-05 s⁻¹ |  | < 1e-05 s⁻¹
C61G A64C | < 1e-05 s⁻¹ |  | < 1e-05 s⁻¹ |  | < 1e-05 s⁻¹
C61G C71A | < 1e-05 s⁻¹ |  |  |  | < 1e-05 s⁻¹
C61U C67A | < 1e-05 s⁻¹ |  |  |  | < 1e-05 s⁻¹
C61U G63A | < 1e-05 s⁻¹ | < 1e-05 s⁻¹ | < 1e-05 s⁻¹ |  | < 1e-05 s⁻¹
G62A A64G | < 1e-05 s⁻¹ |  |  |  | 
G62A U65A | < 1e-05 s⁻¹ | < 1e-05 s⁻¹ | < 1e-05 s⁻¹ | < 1e-05 s⁻¹ | < 1e-05 s⁻¹
G62C C71G | < 1e-05 s⁻¹ |  | < 1e-05 s⁻¹ |  | < 1e-05 s⁻¹
G62C G66U | < 1e-05 s⁻¹ | < 1e-05 s⁻¹ |  |  | 
G62C U65C | < 1e-05 s⁻¹ | < 1e-05 s⁻¹ | < 1e-05 s⁻¹ | < 1e-05 s⁻¹ | 
G62C U69A | < 1e-05 s⁻¹ |  |  |  | 
G62U A64C C70A | < 1e-05 s⁻¹ |  |  |  | < 1e-05 s⁻¹
G62U A64U C68U | < 1e-05 s⁻¹ |  |  |  | < 1e-05 s⁻¹

Variant | self-cleavage kobs at 40 uM GlcN6P [1] | self-cleavage kobs at 640 uM GlcN6P [2] | self-cleavage kobs at 160 uM GlcN6P [3] | self-cleavage kobs at 2500 uM GlcN6P [4] | self-cleavage kobs at 10000 uM GlcN6P [5]
G62U G66U C71U | < 1e-05 s⁻¹ | < 1e-05 s⁻¹ |  | < 1e-05 s⁻¹ | 
G62U U65C | < 1e-05 s⁻¹ | < 1e-05 s⁻¹ | < 1e-05 s⁻¹ |  | 
G63A A64G | < 1e-05 s⁻¹ |  |  |  | < 1e-05 s⁻¹
G63A U65A | < 1e-05 s⁻¹ |  |  | < 1e-05 s⁻¹ | < 1e-05 s⁻¹
G63A U65G C67G | < 1e-05 s⁻¹ |  |  |  | 
G63C C67G | < 1e-05 s⁻¹ |  |  |  | 
G63C C71A | < 1e-05 s⁻¹ |  |  |  | < 1e-05 s⁻¹
G63C U65G | < 1e-05 s⁻¹ |  |  |  | 
G63U C71U | < 1e-05 s⁻¹ | < 1e-05 s⁻¹ |  |  | < 1e-05 s⁻¹
G63U G66C | < 1e-05 s⁻¹ |  | < 1e-05 s⁻¹ | < 1e-05 s⁻¹ | < 1e-05 s⁻¹
G63U U69C | < 1e-05 s⁻¹ |  |  |  | < 1e-05 s⁻¹
A64C C68G C70G | < 1e-05 s⁻¹ | < 1e-05 s⁻¹ |  | < 1e-05 s⁻¹ | 
A64C C71U | < 1e-05 s⁻¹ |  |  |  | 
A64C U65A | < 1e-05 s⁻¹ |  | < 1e-05 s⁻¹ |  | 
A64G C67U | 2.93e-05 ± 7.3e-06 s⁻¹ | 0.000628 ± 8.6e-05 s⁻¹ | 0.000155 ± 2.3e-05 s⁻¹ | 0.00125 ± 0.00017 s⁻¹ | 0.00154 ± 0.00015 s⁻¹
A64G C68G C71A | < 1e-05 s⁻¹ | < 1e-05 s⁻¹ | < 1e-05 s⁻¹ |  | < 1e-05 s⁻¹
A64G U65C C68A | < 1e-05 s⁻¹ |  |  | < 1e-05 s⁻¹ | < 1e-05 s⁻¹
A64G U65G | 5.76e-05 ± 1e-05 s⁻¹ | 0.000845 ± 0.00015 s⁻¹ | 0.000262 ± 6e-05 s⁻¹ | 0.00174 ± 0.00029 s⁻¹ | 0.00489 ± 0.00066 s⁻¹
A64G U69A | < 1e-05 s⁻¹ | 3.36e-05 ± 1.6e-05 s⁻¹ |  | 4.75e-05 ± 1.6e-05 s⁻¹ | 7.42e-05 ± 1.3e-05 s⁻¹
A64U C68A | < 1e-05 s⁻¹ | < 1e-05 s⁻¹ |  |  | < 1e-05 s⁻¹
A64U C70G | < 1e-05 s⁻¹ |  |  |  | 
